Values joined by “and” are separate entries in the source; they are usually repeats but may differ in a detail not shown here. Equal values may be shown once. The source gives many values for each of these; only a part stands here.
Assay: Tissue distribution and elimination of total radioactivity (total residues) after oral ^3H-ADP for 7 d
Format: in vivo, swine
Description: (0.1 Ci/g) through oral gavage for 7 consecutive days. All the animals were housed on the basis of their group in the cages or aquaria throughout the whole study period. A group of animals was slaughtered through exsanguination under diethyl ether inhalation of anesthesia in the period of 6 h, 1, 3, 7, 14, and 21 d after the administration. The blood samples were immediately collected into the heparinized tubes and was centrifuged at 1920 × g at 4 °C for 10 min to obtain the plasma. The tissues from the heart, liver, spleen, lung, kidney, craw (broilers), stomach, intestine, fat, skin, muscle, thymus, pancreas, bile, bladder, hair (scale for carp), genital gland, adrenal glands, swim bladder (carp), brain, lymph, and bursa (broilers) were carefully excised and collected. The tissues were thoroughly rinsed with the deionized water to remove the residuary blood, blotted to dryness, and finally to perform the homogenization. In order to avoid cross-contamination the dissecting instruments were washed during the tissue procurements. The blank tissues were collected in order to provide control matrices. The total radioactivity levels in each sample were determined through LSC. The samples extracted from the plasma, bile, and tissues of the liver, kidney, muscle, and fat/skin were analyzed through LC/MS-IT-TOF and v. ARC radiometric detection for metabolite profiling.
Measurements of the total radioactivity in each sample were conducted by Packard Tri-Carb 2900 TR liquid scintillation counter (PerkinElmer Life and Analytical Sciences). The detection time was 10 min for two cycles. The scintillation counter data were automatically corrected for counting efficiency by instrument-stored quench curve which was drawn with a series of sealed quenched […] standards. The actual radioactivity of each sample was calculated by subtracting the background value form the mean radioactivity in two blank samples. All the samples were analyzed in duplicate if the sample size allowed this. If the results were differed by more than 10% from the mean value, the samples were reanalyzed. The samples with LSC counts less than 2-fold of the level of the running background were considered to contain insufficient radioactivity for reliable quantification.
Aliquots of liquid samples (urine, plasma, bile and raised water, 200 μL) were mixed with 10 mL of Ultima Gold^TM scintillation fluid for the direct analysis by LSC. Aliquots of solid samples (feces and tissues, 200 mg) were digested overnight with 2 mL tissue solubilizer at 50 °C in a shaking water bath, followed by adding 200 μL of 0.1 mol/L EDTA-Na and 200 μL of 30% H2O2, and was bathed at 50 °C for 2 h to bleach. The obtained transparent liquid were mixed with 10 mL of scintillation fluid and finally were counted by LSC. The digestion efficiency was determined by using the blank samples spiked with ^3 H standard for digestion, and the measured radioactivity content in the digested samples were adjusted by using the digestion efficiency values.
The concentrations of ADP and/or its metabolites were analyzed by using the following equation: C = L/(2.22 × 10^9 × RM), where C is the concentration of ADP or/and its metabolites (mg/kg), L is the LSC count (dpm), R is the specific activity of the administered dose (0.1 Ci/g), and M is the weight or volume of samples (kg or L). The results are expressed as mean ± SD. The elimination kinetics of terminal phase for ADP and its metabolites were conducted by using the WinNonlin linear regression program (Pharsight corporation, Statistical consultants, Inc., Kentucky, USA).

[3H]c1c(Cc2cnc(N)nc2N)cc(OC)c(N(C)C)c1OC [^3H-ADP]
Concentrations of total residues (swine Adrenal, 0.25 d after 5 mg/kg b. w. for 7 days): 48.60 ± 3.20 mg/kg | Concentrations of total residues (swine Adrenal, 1 d after 5 mg/kg b. w. for 7 days): 13.85 ± 7.65 mg/kg | Concentrations of total residues (swine Adrenal, 3 d after 5 mg/kg b. w. for 7 days): 1.33 ± 0.13 mg/kg | Concentrations of total residues (swine Adrenal, 7 d after 5 mg/kg b. w. for 7 days): 0.29 ± 0.05 mg/kg | Concentrations of total residues (swine Adrenal, 14 d after 5 mg/kg b. w. for 7 days): 0.06 ± 0.00 mg/kg | Concentrations of total residues (swine Bile, 0.25 d after 5 mg/kg b. w. for 7 days): 66.0 ± 30.1 mg/kg and 66.00 ± 30.11 mg/kg | Concentrations of total residues (swine Bile, 1 d after 5 mg/kg b. w. for 7 days): 19.60 ± 10.41 mg/kg | Concentrations of total residues (swine Bile, 3 d after 5 mg/kg b. w. for 7 days): 1.60 ± 0.10 mg/kg | Concentrations of total residues (swine Bile, 7 d after 5 mg/kg b. w. for 7 days): 0.22 ± 0.01 mg/kg | Concentrations of total residues (swine Bladder, 0.25 d after 5 mg/kg b. w. for 7 days): 5.38 ± 0.54 mg/kg | Concentrations of total residues (swine Bladder, 1 d after 5 mg/kg b. w. for 7 days): 2.31 ± 1.39 mg/kg | Concentrations of total residues (swine Bladder, 3 d after 5 mg/kg b. w. for 7 days): 0.60 ± 0.18 mg/kg | Concentrations of total residues (swine Bladder, 7 d after 5 mg/kg b. w. for 7 days): 0.11 ± 0.03 mg/kg | Concentrations of total residues (swine Blood, 0.25 d after 5 mg/kg b. w. for 7 days): 2.21 ± 0.21 mg/kg | Concentrations of total residues (swine Blood, 1 d after 5 mg/kg b. w. for 7 days): 1.57 ± 0.28 mg/kg | Concentrations of total residues (swine Blood, 3 d after 5 mg/kg b. w. for 7 days): 0.62 ± 0.02 mg/kg | Concentrations of total residues (swine Blood, 7 d after 5 mg/kg b. w. for 7 days): 0.09 ± 0.02 mg/kg | Concentrations of total residues (swine Clothing hair, 0.25 d after 5 mg/kg b. w. for 7 days): 0.33 ± 0.16 mg/kg | Concentrations of total residues (swine Clothing hair, 1 d after 5 mg/kg b. w. for 7 days): 0.32 ± 0.14 mg/kg | Concentrations of total residues (swine Clothing hair, 3 d after 5 mg/kg b. w. for 7 days): 0.30 ± 0.11 mg/kg | Concentrations of total residues (swine Clothing hair, 7 d after 5 mg/kg b. w. for 7 days): 0.13 ± 0.01 mg/kg | Concentrations of total residues (swine Clothing hair, 14 d after 5 mg/kg b. w. for 7 days): 0.05 ± 0.01 mg/kg | Concentrations of total residues (swine Fat, 0.25 d after 5 mg/kg b. w. for 7 days): 1.63 ± 0.38 mg/kg | Concentrations of total residues (swine Fat, 1 d after 5 mg/kg b. w. for 7 days): 0.57 ± 0.11 mg/kg | Concentrations of total residues (swine Fat, 3 d after 5 mg/kg b. w. for 7 days): 0.35 ± 0.04 mg/kg | Concentrations of total residues (swine Fat, 7 d after 5 mg/kg b. w. for 7 days): 0.17 ± 0.05 mg/kg | Concentrations of total residues (swine Heart, 0.25 d after 5 mg/kg b. w. for 7 days): 3.53 ± 0.16 mg/kg | Concentrations of total residues (swine Heart, 1 d after 5 mg/kg b. w. for 7 days): 1.51 ± 0.63 mg/kg | Concentrations of total residues (swine Heart, 3 d after 5 mg/kg b. w. for 7 days): 0.48 ± 0.04 mg/kg | Concentrations of total residues (swine Heart, 7 d after 5 mg/kg b. w. for 7 days): 0.15 ± 0.04 mg/kg | Concentrations of total residues (swine Heart, 14 d after 5 mg/kg b. w. for 7 days): 0.02 ± 0.00 mg/kg | Concentrations of total residues (swine Kidney, 0.25 d after 5 mg/kg b. w. for 7 days): 46.83 ± 5.24 mg/kg | Concentrations of total residues (swine Kidney, 1 d after 5 mg/kg b. w. for 7 days): 10.93 ± 5.42 mg/kg | Concentrations of total residues (swine Kidney, 3 d after 5 mg/kg b. w. for 7 days): 1.26 ± 0.10 mg/kg | Concentrations of total residues (swine Kidney, 7 d after 5 mg/kg b. w. for 7 days): 0.38 ± 0.01 mg/kg | Concentrations of total residues (swine Kidney, 14 d after 5 mg/kg b. w. for 7 days): 0.12 ± 0.01 mg/kg | Concentrations of total residues (swine Large Intestine, 0.25 d after 5 mg/kg b. w. for 7 days): 6.40 ± 1.26 mg/kg | Concentrations of total residues (swine Large Intestine, 1 d after 5 mg/kg b. w. for 7 days): 2.16 ± 1.15 mg/kg | Concentrations of total residues (swine Large Intestine, 3 d after 5 mg/kg b. w. for 7 days): 0.28 ± 0.03 mg/kg | Concentrations of total residues (swine Large Intestine, 7 d after 5 mg/kg b. w. for 7 days): 0.10 ± 0.03 mg/kg | Concentrations of total residues (swine Liver, 0.25 d after 5 mg/kg b. w. for 7 days): 21.65 ± 2.75 mg/kg | Concentrations of total residues (swine Liver, 3 d after 5 mg/kg b. w. for 7 days): 2.37 ± 0.17 mg/kg | Concentrations of total residues (swine Liver, 7 d after 5 mg/kg b. w. for 7 days): 0.86 ± 0.15 mg/kg | Concentrations of total residues (swine Liver, 14 d after 5 mg/kg b. w. for 7 days): 0.37 ± 0.03 mg/kg | Concentrations of total residues (swine Lung, 0.25 d after 5 mg/kg b. w. for 7 days): 36.92 ± 3.38 mg/kg | Concentrations of total residues (swine Lung, 1 d after 5 mg/kg b. w. for 7 days): 9.63 ± 4.57 mg/kg | Concentrations of total residues (swine Lung, 3 d after 5 mg/kg b. w. for 7 days): 0.89 ± 0.03 mg/kg | Concentrations of total residues (swine Lung, 7 d after 5 mg/kg b. w. for 7 days): 0.23 ± 0.05 mg/kg | Concentrations of total residues (swine Lung, 14 d after 5 mg/kg b. w. for 7 days): 0.04 ± 0.00 mg/kg | Concentrations of total residues (swine Lymph, 0.25 d after 5 mg/kg b. w. for 7 days): 16.96 ± 0.33 mg/kg | Concentrations of total residues (swine Lymph, 1 d after 5 mg/kg b. w. for 7 days): 4.74 ± 2.60 mg/kg | Concentrations of total residues (swine Lymph, 3 d after 5 mg/kg b. w. for 7 days): 0.84 ± 0.10 mg/kg | Concentrations of total residues (swine Lymph, 7 d after 5 mg/kg b. w. for 7 days): 0.25 ± 0.04 mg/kg | Concentrations of total residues (swine Muscle, 0.25 d after 5 mg/kg b. w. for 7 days): 2.69 ± 0.27 mg/kg | Concentrations of total residues (swine Muscle, 1 d after 5 mg/kg b. w. for 7 days): 1.10 ± 0.47 mg/kg | Concentrations of total residues (swine Muscle, 3 d after 5 mg/kg b. w. for 7 days): 0.43 ± 0.01 mg/kg | Concentrations of total residues (swine Muscle, 7 d after 5 mg/kg b. w. for 7 days): 0.09 ± 0.02 mg/kg | Concentrations of total residues (swine Pancreas, 0.25 d after 5 mg/kg b. w. for 7 days): 16.20 ± 2.32 mg/kg | Concentrations of total residues (swine Pancreas, 1 d after 5 mg/kg b. w. for 7 days): 5.06 ± 2.61 mg/kg | Concentrations of total residues (swine Pancreas, 3 d after 5 mg/kg b. w. for 7 days): 0.74 ± 0.05 mg/kg | Concentrations of total residues (swine Pancreas, 7 d after 5 mg/kg b. w. for 7 days): 0.24 ± 0.07 mg/kg | Concentrations of total residues (swine Pancreas, 14 d after 5 mg/kg b. w. for 7 days): 0.04 ± 0.00 mg/kg | Concentrations of total residues (swine Skin, 0.25 d after 5 mg/kg b. w. for 7 days): 3.77 ± 0.75 mg/kg | Concentrations of total residues (swine Skin, 1 d after 5 mg/kg b. w. for 7 days): 1.89 ± 0.46 mg/kg | Concentrations of total residues (swine Skin, 3 d after 5 mg/kg b. w. for 7 days): 0.63 ± 0.39 mg/kg | Concentrations of total residues (swine Skin, 7 d after 5 mg/kg b. w. for 7 days): 0.44 ± 0.10 mg/kg | Concentrations of total residues (swine Skin, 14 d after 5 mg/kg b. w. for 7 days): 0.04 ± 0.01 mg/kg | Concentrations of total residues (swine Small Intestine, 0.25 d after 5 mg/kg b. w. for 7 days): 4.53 ± 1.40 mg/kg | Concentrations of total residues (swine Small Intestine, 1 d after 5 mg/kg b. w. for 7 days): 1.94 ± 0.63 mg/kg | Concentrations of total residues (swine Small Intestine, 3 d after 5 mg/kg b. w. for 7 days): 0.26 ± 0.02 mg/kg | Concentrations of total residues (swine Small Intestine, 7 d after 5 mg/kg b. w. for 7 days): 0.06 ± 0.03 mg/kg | Concentrations of total residues (swine Spleen, 0.25 d after 5 mg/kg b. w. for 7 days): 25.40 ± 2.91 mg/kg | Concentrations of total residues (swine Spleen, 3 d after 5 mg/kg b. w. for 7 days): 0.91 ± 0.09 mg/kg | Concentrations of total residues (swine Spleen, 7 d after 5 mg/kg b. w. for 7 days): 0.31 ± 0.01 mg/kg | Concentrations of total residues (swine Spleen, 14 d after 5 mg/kg b. w. for 7 days): 0.09 ± 0.01 mg/kg | Concentrations of total residues (swine Stomach, 0.25 d after 5 mg/kg b. w. for 7 days): 15.32 ± 5.59 mg/kg | Concentrations of total residues (swine Stomach, 1 d after 5 mg/kg b. w. for 7 days): 4.00 ± 2.18 mg/kg | Concentrations of total residues (swine Stomach, 3 d after 5 mg/kg b. w. for 7 days): 0.68 ± 0.16 mg/kg | Concentrations of total residues (swine Stomach, 7 d after 5 mg/kg b. w. for 7 days): 0.15 ± 0.03 mg/kg | Concentrations of total residues (swine Thymus, 0.25 d after 5 mg/kg b. w. for 7 days): 11.65 ± 0.31 mg/kg | Concentrations of total residues (swine Thymus, 1 d after 5 mg/kg b. w. for 7 days): 3.02 ± 1.54 mg/kg | Concentrations of total residues (swine Thymus, 3 d after 5 mg/kg b. w. for 7 days): 0.73 ± 0.20 mg/kg | Concentrations of total residues (swine Thymus, 7 d after 5 mg/kg b. w. for 7 days): 0.29 ± 0.06 mg/kg

— article PMC4738305, “Metabolism and Disposition of Aditoprim in Swine, Broilers, Carp and Rats” (Scientific Reports, 2016)
